Results are given in words; binding and its absence hold for the method and conditions named. Binding seen in cells or lysates may run through a third protein. Some results given as binding are weak or reduced against the parent protein; the word gives no strength. For part of these data: Tags and fused reporters may be left off the sequences shown.

The chains behind the UniProt entries cited, without tags or fusion partners.
UniProt Q93ZX1: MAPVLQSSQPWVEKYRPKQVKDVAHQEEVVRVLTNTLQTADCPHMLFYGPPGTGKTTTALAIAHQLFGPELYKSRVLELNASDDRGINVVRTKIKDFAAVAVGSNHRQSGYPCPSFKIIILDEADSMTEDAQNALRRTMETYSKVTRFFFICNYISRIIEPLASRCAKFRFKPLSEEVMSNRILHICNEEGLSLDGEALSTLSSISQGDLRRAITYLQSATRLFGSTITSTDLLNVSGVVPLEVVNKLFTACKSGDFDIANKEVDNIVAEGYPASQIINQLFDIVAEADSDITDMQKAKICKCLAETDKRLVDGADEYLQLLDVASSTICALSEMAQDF
UniProt Q9FXM3: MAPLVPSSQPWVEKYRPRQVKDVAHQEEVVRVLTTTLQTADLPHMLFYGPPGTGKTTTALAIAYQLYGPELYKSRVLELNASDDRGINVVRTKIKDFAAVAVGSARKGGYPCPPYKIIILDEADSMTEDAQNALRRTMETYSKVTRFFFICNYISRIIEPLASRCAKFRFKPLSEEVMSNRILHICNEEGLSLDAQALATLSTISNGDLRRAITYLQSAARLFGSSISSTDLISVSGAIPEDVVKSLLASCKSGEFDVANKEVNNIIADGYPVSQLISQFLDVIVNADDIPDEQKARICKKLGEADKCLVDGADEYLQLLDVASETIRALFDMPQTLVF

We go through six molecules from paper PMC6570896.

Experiment in all cases: split reporter; BiFC: fusions to YFP^N (1-155 aa) and YFP^C (156-239 aa) co-expressed transiently in Nicotiana benthamiana leaf epidermal cells; YFP seen by confocal microscopy
Test [1] concerns the target AtPCNA1-YFP^C (Arabidopsis thaliana) (UniProt Q9M7Q7).
In test [2] the target is AtPCNA2-YFP^C (Arabidopsis thaliana) (UniProt Q9ZW35).
The target in test [3] is AtPCNA1 Δ1–136 (Arabidopsis thaliana) (UniProt Q9M7Q7).
The target in test [4] is T1, AtRFC2-YFP^N (Arabidopsis thaliana) (UniProt Q9CAM7).
T1 sequence: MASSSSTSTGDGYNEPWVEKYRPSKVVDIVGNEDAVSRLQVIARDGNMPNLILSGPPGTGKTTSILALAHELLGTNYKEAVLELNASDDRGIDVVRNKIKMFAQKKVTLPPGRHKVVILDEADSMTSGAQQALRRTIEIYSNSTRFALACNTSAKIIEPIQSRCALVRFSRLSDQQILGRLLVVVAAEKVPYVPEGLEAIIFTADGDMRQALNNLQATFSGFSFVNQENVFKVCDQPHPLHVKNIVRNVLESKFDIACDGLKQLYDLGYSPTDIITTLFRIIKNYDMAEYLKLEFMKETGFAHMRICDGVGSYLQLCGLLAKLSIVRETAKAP

Test [5] has as its target AtRFC4-YFP^N (Arabidopsis thaliana) (UniProt Q93ZX1).
Test [6] addresses AtPCNA1 Δ224–263 (Arabidopsis thaliana) (UniProt Q9M7Q7).
Test [7] concerns the target AtPCNA2 Δ225–264 (Arabidopsis thaliana) (UniProt Q9ZW35).
In test [8] the target is OsRFC2-YFP^N (rice (Oryza sativa)) (UniProt Q9FXM3).
In test [9] the target is T2, OsRFC1-YFP^N (rice (Oryza sativa)) (UniProt Q2R2B4).
T2 sequence: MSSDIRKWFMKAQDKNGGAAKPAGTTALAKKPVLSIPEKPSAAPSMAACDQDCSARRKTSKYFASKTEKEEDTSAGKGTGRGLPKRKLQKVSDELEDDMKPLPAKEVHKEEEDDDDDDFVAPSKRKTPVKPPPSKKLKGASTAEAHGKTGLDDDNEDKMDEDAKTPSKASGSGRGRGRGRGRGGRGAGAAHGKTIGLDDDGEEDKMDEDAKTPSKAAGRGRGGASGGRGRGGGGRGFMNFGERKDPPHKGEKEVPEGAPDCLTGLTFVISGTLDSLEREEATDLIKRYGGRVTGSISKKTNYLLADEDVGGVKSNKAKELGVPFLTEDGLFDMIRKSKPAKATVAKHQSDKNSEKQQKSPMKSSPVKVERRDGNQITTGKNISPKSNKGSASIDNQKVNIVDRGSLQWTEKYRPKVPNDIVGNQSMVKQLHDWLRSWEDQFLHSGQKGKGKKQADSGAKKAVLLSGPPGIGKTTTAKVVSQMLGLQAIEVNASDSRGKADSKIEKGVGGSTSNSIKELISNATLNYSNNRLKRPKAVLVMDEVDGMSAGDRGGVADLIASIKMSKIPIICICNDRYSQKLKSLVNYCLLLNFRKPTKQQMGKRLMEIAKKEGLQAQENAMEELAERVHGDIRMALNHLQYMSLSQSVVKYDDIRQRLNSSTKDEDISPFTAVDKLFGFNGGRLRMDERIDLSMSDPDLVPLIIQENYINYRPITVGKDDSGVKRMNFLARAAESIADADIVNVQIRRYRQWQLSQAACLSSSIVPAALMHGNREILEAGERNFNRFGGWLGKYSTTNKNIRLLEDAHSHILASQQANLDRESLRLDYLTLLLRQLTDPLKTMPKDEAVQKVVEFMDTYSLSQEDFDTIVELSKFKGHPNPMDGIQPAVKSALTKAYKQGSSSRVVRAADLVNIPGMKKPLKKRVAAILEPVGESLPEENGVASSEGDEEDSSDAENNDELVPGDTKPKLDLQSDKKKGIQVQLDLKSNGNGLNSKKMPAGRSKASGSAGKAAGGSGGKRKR

For test [10], the target named is T3, OsRFC3-YFP^N (rice (Oryza sativa)) (UniProt Q6YZ54).
T3 sequence: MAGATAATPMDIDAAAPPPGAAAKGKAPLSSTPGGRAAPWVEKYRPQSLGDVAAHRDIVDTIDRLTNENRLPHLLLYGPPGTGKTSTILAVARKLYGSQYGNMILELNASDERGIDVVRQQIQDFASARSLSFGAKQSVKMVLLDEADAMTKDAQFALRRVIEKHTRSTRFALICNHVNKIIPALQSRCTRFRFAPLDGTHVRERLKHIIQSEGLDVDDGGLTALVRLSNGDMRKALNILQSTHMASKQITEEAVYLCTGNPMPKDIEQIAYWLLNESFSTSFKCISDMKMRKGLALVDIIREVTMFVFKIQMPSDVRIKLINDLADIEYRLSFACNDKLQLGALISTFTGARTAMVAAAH

Test [11] deals with T4, OsRFC5-YFP^N (rice (Oryza sativa)) (UniProt Q852K3).
T4 sequence: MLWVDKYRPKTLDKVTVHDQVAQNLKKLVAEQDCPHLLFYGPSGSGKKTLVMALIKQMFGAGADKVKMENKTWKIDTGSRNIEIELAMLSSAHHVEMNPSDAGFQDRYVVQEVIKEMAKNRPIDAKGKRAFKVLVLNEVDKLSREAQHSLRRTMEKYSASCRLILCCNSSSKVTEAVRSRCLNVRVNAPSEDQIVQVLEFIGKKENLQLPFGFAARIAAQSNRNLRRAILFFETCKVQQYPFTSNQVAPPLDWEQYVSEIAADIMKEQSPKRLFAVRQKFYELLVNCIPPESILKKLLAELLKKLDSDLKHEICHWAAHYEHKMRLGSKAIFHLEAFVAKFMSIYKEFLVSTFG

Test [12] concerns the target T5, OsRFC4-YFP^N (rice (Oryza sativa)) (UniProt Q7XRX1).
T5 sequence: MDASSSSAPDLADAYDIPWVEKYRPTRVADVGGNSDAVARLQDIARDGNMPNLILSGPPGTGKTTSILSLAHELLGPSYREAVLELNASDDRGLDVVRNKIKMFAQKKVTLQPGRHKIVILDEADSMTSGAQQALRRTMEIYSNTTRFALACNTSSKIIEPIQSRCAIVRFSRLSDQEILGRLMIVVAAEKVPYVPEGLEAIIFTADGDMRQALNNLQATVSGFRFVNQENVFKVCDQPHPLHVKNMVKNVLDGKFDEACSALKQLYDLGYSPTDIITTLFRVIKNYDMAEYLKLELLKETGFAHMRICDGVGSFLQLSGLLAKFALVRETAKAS

In test [13] the target is OsPCNA Δ254–263 (rice (Oryza sativa)) (UniProt P17070).
Test [14] concerns the target OsPCNA-YFP^C (rice (Oryza sativa)) (UniProt P17070).
For test [15], the target named is AtPCNA2 Δ1–136 (Arabidopsis thaliana) (UniProt Q9ZW35).
For test [16], the target named is AtPCNA2 Δ1–120 (Arabidopsis thaliana) (UniProt Q9ZW35).

B1: AtPCNA1 Δ1–136 (domain or fragment, UniProt Q9M7Q7 137-263)
chain: VRMPSNEFSRICKDLSSIGDTVVISVTKEGVKFSTAGDIGTANIVLRQNTTVDKPEDAIVIEMKEPVSLSFALRYMNSFTKATPLSDTVTISLSSELPVVVEYKVAEMGYIRYYLAPKIEEEEDTNP
On to B1, for which the binding entry in [1], in test [2], in test [3], in [4] and in test [5] was “no binding” in each case.

B2: AtPCNA1 Δ224–263 (domain or fragment, UniProt Q9M7Q7 1-223)
chain: MLELRLVQGSLLKKVLESIKDLVNDANFDCSSTGFSLQAMDSSHVALVSLLLRSEGFEHYRCDRNLSMGMNLGNMSKMLKCAGNDDIITIKADDGGDTVTFMFESPTQDKIADFEMKLMDIDSEHLGIPDAEYHSIVRMPSNEFSRICKDLSSIGDTVVISVTKEGVKFSTAGDIGTANIVLRQNTTVDKPEDAIVIEMKEPVSLSFALRYMNSFTKATPLSD
With B2, the binding entry in [6] is “no binding”.

B3: AtPCNA2 Δ225–264 (domain or fragment, UniProt Q9ZW35 1-224)
chain: MLELRLVQGSLLKKVLEAVKDLVNDANFDCSTTGFSLQAMDSSHVALVSLLLRSEGFEHYRCDRNLSMGMNLGNMSKMLKCAGNDDIITIKADDGSDTVTFMFESPTQDKIADFEMKLMDIDSEHLGIPDAEYHSIVRMPSGEFSRICKDLSSIGDTVVISVTKEGVKFSTAGDIGTANIVLRQNTTVDKPEDAIVIEMNEPVSLSFALRYMNSFTKATPLSET
Take B3: the binding entry in [7] is “no binding”.

B4: OsPCNA Δ254–263 (domain or fragment, UniProt P17070 1-253)
chain: MLELRLVQGSLLKKVLEAIRELVTDANFDCSGTGFSLQAMDSSHVALVALLLRSEGFEHYRCDRNLSMGMNLNNMAKMLRCAGNDDIITIKADDGSDTVTFMFESPNQDKIADFEMKLMDIDSEHLGIPDSEYQAIVRMPSSEFSRICKDLSSIGDTVIISVTKEGVKFSTAGDIGTANIVCRQNKTVDKPEDATIIEMQEPVSLTFALRYMNSFTKASPLSEQVTISLSSELPVVVEYKIAEMGYIRFYLAP
For the molecule B4, the binding result in test [8] was “no binding”; in [9], “binds”; in test [10], “binds”; in test [11] it was “binds”; in test [12], “binds”; in [13], “binds”. Further, in test [14], the binding result is “binds”.

B5: AtPCNA2 Δ1–136 (domain or fragment, UniProt Q9ZW35 137-264)
chain: VRMPSGEFSRICKDLSSIGDTVVISVTKEGVKFSTAGDIGTANIVLRQNTTVDKPEDAIVIEMNEPVSLSFALRYMNSFTKATPLSETVTISLSSELPVVVEYKVAEMGYIRYYLAPKIEEEEDTKPE
As for B5, the binding result in test [1], in test [2], in test [15], in [4] and in test [5] was “no binding” each time.

B6: AtPCNA2 Δ1–120 (domain or fragment, UniProt Q9ZW35 121-264)
chain: IDSEHLGIPDAEYHSIVRMPSGEFSRICKDLSSIGDTVVISVTKEGVKFSTAGDIGTANIVLRQNTTVDKPEDAIVIEMNEPVSLSFALRYMNSFTKATPLSETVTISLSSELPVVVEYKVAEMGYIRYYLAPKIEEEEDTKPE
Turning to B6, the binding result in test [1], in test [2], in test [16], in test [4] and in [5] was “binds” throughout.
